# Reference: the RNAGym collection of RNA variant scans (doi:10.1073/pnas.2313332121)
# Variants at the floor of the assay are shown more often than the library holds them.
# B1: TPR 5TU (parent)
# chain: GGAUCUUCUCGAUCUAACAAAAAAGACAAAUCUGCCACAAAGCUUGAGAGCAUCUUCGGAUGCAGAGGCGGCAGCCUUCGGUGGCGCGAUAGCGCCAACGUUCUCAACUAUGACACGCAAAACGCGUGCUCCGUUGAAUGGAGUUUAUCAUG
# Variants of: B1
# Assay: polymerase ribozyme fitness, log enrichment relative to wild type (log ratio); higher = more active; in vitro selection for triplet polymerase activity
# In short: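 A single round of triplicate in vitro selection, including frozen incubation at −7 °C, was applied to PCR-built, transcribed mutant libraries of each subunit of a heterodimeric triplet polymerase ribozyme. Illumina sequencing of input and output libraries retained genotypes with ≥10 input reads and ≥1 read per output. Fitness is the base-2 logarithm of genotype enrichment divided by wild-type enrichment, from inverse-variance-weighted replicate averages.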
row,Variant,polymerase ribozyme fitness (log ratio)
1,A24U A49G A73G C75G U101A,≤ -4.2
2,A24U A52C G58U G71U C79A G88U U134C U148G,≤ -4.2
3,A24U A52G A66U C79U G86U A138U C149A,≤ -4.2
4,A24U A52G C54G C87G C99A G126C,≤ -4.2
5,A24U A52G G68U G80A U102A,≤ -4.2
6,A24U A60G C79G C96G U109C,≤ -4.2
7,A24U A60U A91C A119C,≤ -4.2
8,A24U A73G C87A G136C,≤ -4.2
9,A24U A91G G94A A97G C116A,≤ -4.2
10,A24U A97U U104C A107G C132U,≤ -4.2
11,A24U A113C,-3.05
12,A24U C27U C36U G58C G83A G112U A121G G124C,≤ -4.2
13,A24U C32G G59A A66G C93U,≤ -4.2
14,A24U C32G G86A C114U,≤ -4.2
15,A24U C32U A40C A47U,≤ -4.2
16,A24U C35A C63U C87U U139C,≤ -4.2
17,A24U C35G C36U G68A C93A C131U,≤ -4.2
18,A24U C35U A60C G84A A91U U101C A106C C132G,≤ -4.2
19,A24U C35U C75U,-2.19
20,A24U C38A A49U C72A G83A A91G C96A G141A,≤ -4.2
21,A24U C38G C85U C87U A120C C132G,≤ -4.2
22,A24U C38G G71A A91G C93U C99U,≤ -4.2
23,A24U C38U U56A G83C A91C G143C,≤ -4.2
24,A24U C43G U77G C96G A97G C103U G133U G152U,≤ -4.2

row,Variant,polymerase ribozyme fitness (log ratio)
1,A24U C51A U53A A89U C93G C96G C123A,≤ -4.2
2,A24U C54G U56G C93A G100U C131A U134G,≤ -4.2
3,A24U C54U C99G C105A U135G,≤ -4.2
4,A24U C57G C72U C129U U135A U144C,≤ -4.2
5,A24U C57U C69G G84A C87A A115C,≤ -4.2
6,A24U C63G U77C U144A,≤ -4.2
7,A24U C63G U151G,≤ -4.2
8,A24U C72U C85G A137G A142C,≤ -4.2
9,A24U C75U G83A C95U A110G C125U A150C,≤ -4.2
10,A24U C76A G84U C105A A138U U146G,≤ -4.2
11,A24U C76G G81C A91G C96A C116G G117U U130G C131U U148G,≤ -4.2
12,A24U C76U C96A A115U A142C,≤ -4.2
13,A24U C93U U104G,-1.84
14,A24U C96U C129G,-3.47
15,A24U C99A G133U G143C U146G,≤ -4.2
16,A24U G25U A60C G62A C85A C99G C103A,≤ -4.2
17,A24U G42C G67U C87G C99A,≤ -4.2
18,A24U G46A G88C C105U G136A,≤ -4.2
19,A24U G46C A60C U102G,≤ -4.2
20,A24U G46U G70A C87U C105U,≤ -4.2
21,A24U G48A A49G G50A U55A C123A G136C,≤ -4.2
22,A24U G48C A64G C87A A98G U148G,≤ -4.2
23,A24U G48U G83A,-1.25
24,A24U G50C C57U C79G C118G U148C,≤ -4.2

row,Variant,polymerase ribozyme fitness (log ratio)
1,A24U G50U G59A,0.438
2,A24U G50U G88U G100U,≤ -4.2
3,A24U G58A G88U,≤ -4.2
4,A24U G58C C63G G80A C96G U145A,≤ -4.2
5,A24U G58U G71A G81A G88A,≤ -4.2
6,A24U G59A G88U C99G C118A U135A,≤ -4.2
7,A24U G59C C63U G84C C87G C96A A106U A137U,≤ -4.2
8,A24U G62A C79G,≤ -4.2
9,A24U G67A G68A A91U C96G A98G C105U A113G C114G,≤ -4.2
10,A24U G71A C75U C85A G141U U144A,≤ -4.2
11,A24U G80C G86A G136U,≤ -4.2
12,A24U G83A G84A C105A G128C,≤ -4.2
13,A24U G83U C85G G126U,≤ -4.2
14,A24U G83U G136A U146C A150G,-3.59
15,A24U G84U,-2.26
16,A24U G88C C95G C123G,≤ -4.2
17,A24U G88C U139C U144C,≤ -4.2
18,A24U G94U C96A U102C C125G C131A G140C,≤ -4.2
19,A24U U31A C63G C76A,-3.16
20,A24U U31G G48A U55A G83A A120G A121C,≤ -4.2
21,A24U U33C C35G C63A G68U C87U,≤ -4.2
22,A24U U33G U56A A91G C103A,≤ -4.2
23,A24U U33G U77A C87U,≤ -4.2
24,A24U U45A,-3

row,Variant,polymerase ribozyme fitness (log ratio)
1,A24U U55A G62A C108U A138G,≤ -4.2
2,A24U U55A U151G,≤ -4.2
3,A24U U56A,0.265
4,A24U U56A A73G C131G,≤ -4.2
5,A24U U56A C72G C96U A122C A137G,≤ -4.2
6,A24U U56G C57G C87G G133A,≤ -4.2
7,A24U U56G G65C G68A A91U U135C,≤ -4.2
8,A24U U90A C103A,≤ -4.2
9,A24U U90G U102A,≤ -4.2
10,A24U U148C,-2.14
11,G25A,-1.62
12,G25A A26C C63G A66G C72U G80U G92U A98U U109C G152C,≤ -4.2
13,G25A A28G G88C C99U U101G A113G C116U C118G A121C A142C,≤ -4.2
14,G25A A28U G34A C57G C99U C118U G143C,≤ -4.2
15,G25A A29G C32G U44A C79A G94A C105A C116U U134A,≤ -4.2
16,G25A A30G U53A,≤ -4.2
17,G25A A39U G92C C123U U144A,≤ -4.2
18,G25A A41C A52G G67U G83U G136A,≤ -4.2
19,G25A C27G A30C C32G G68A C87A A107U,≤ -4.2
20,G25A C27U G34U U53A G86A C132G,≤ -4.2
21,G25A C35G C79G C95U A150U,≤ -4.2
22,G25A C35U A66U G94A A138G U151G,≤ -4.2
23,G25A C35U U56A A60C C85A C93U A106C,≤ -4.2
24,G25A C51U G59C G88A U102G G136U,≤ -4.2

row,Variant,polymerase ribozyme fitness (log ratio)
1,G25A C51U G92U A119U G124U,-3.78
2,G25A C75A G81A G88A G124A A138U,≤ -4.2
3,G25A C93A U104G,≤ -4.2
4,G25A G50U U77C C87U,≤ -4.2
5,G25A G68A U77A C87G C108A A119C A122U C125G G143C,≤ -4.2
6,G25A U31A G46A A91U C93U G112A A138G,≤ -4.2
7,G25A U44C G58A C96A C116G A119G A142C,≤ -4.2
8,G25A U45A A49G U53A C85U A97U A107C C116A,≤ -4.2
9,G25A U56A,-1.67
10,G25A U111G,≤ -4.2
11,G25C,-2.52
12,G25C A26G A52U C96U G100A G124A,≤ -4.2
13,G25C A26G G59U C75G C76U,≤ -4.2
14,G25C A28G G48A G83C U127C A142C,≤ -4.2
15,G25C A29C C38G A39C C72A A137G G141C,≤ -4.2
16,G25C A30C A60U U102G A106G A121U G128U,≤ -4.2
17,G25C A39G A49C G59U U101A A107G G126A,≤ -4.2
18,G25C A39U G86U,≤ -4.2
19,G25C A40C C57U C85A C99U,≤ -4.2
20,G25C A40C G42U G58A A64G C96U,≤ -4.2
21,G25C A40U C87U C93A C95U,≤ -4.2
22,G25C A41G U44A G48C C85A C93G,≤ -4.2
23,G25C A60G C93U,≤ -4.2
24,G25C C27A C35U C63G A64C C85U A97U C114G,≤ -4.2

row,Variant,polymerase ribozyme fitness (log ratio)
1,G25C C27U C51G G83A A106U C123U,≤ -4.2
2,G25C C27U U45C G71U U82A G83A G92U,≤ -4.2
3,G25C C27U U56A A73G C87G A97G C125A,≤ -4.2
4,G25C C32U U53A G59C A91U C103G U111C,≤ -4.2
5,G25C C35A G68A,≤ -4.2
6,G25C C36G G68U C95G C129A A142C,≤ -4.2
7,G25C C36U C87G A91U G100C C103U,≤ -4.2
8,G25C C38G U45C G86A G94U U109G U146C,≤ -4.2
9,G25C C38U A89U U104G G133C,≤ -4.2
10,G25C C51U G68A G88U U135C U145C,≤ -4.2
11,G25C C51U G92A,≤ -4.2
12,G25C C54A C76A U77G C95U G100U,≤ -4.2
13,G25C C54G C96G G117C A138G C149G,≤ -4.2
14,G25C C54U A73G G84A C85A A89C,≤ -4.2
15,G25C C54U C75G U90C C93A G117U,≤ -4.2
16,G25C C69G C96A C99U C118A,≤ -4.2
17,G25C C75G C103G A122G C129G G140A,≤ -4.2
18,G25C C79G G92U,≤ -4.2
19,G25C C105U U144C,-2.67
20,G25C G48A C54U G68C C95U G141C,≤ -4.2
21,G25C G48A C87U A142G,-4.11
22,G25C G50A G65A G88C A121U,≤ -4.2
23,G25C G50C,≤ -4.2
24,G25C G50C A91C A106C,≤ -4.2

row,Variant,polymerase ribozyme fitness (log ratio)
1,G25C G50U C54U G65A G80C G83U C85G A137U U146C,≤ -4.2
2,G25C G58A C72A G80A C87A C118G,≤ -4.2
3,G25C G59U G74A G88A G140U,≤ -4.2
4,G25C G67A,≤ -4.2
5,G25C G83A G92C A106U,≤ -4.2
6,G25C G84U C87G,≤ -4.2
7,G25C U31G A107U A137C,≤ -4.2
8,G25C U61A C85G U111G C114A,≤ -4.2
9,G25C U77A A142U,≤ -4.2
10,G25C U90C A91G G117A,≤ -4.2
11,G25U,-1.73
12,G25U A26G G68C A107G U135C,≤ -4.2
13,G25U A26U A41U C43U G68A G94U A106C A142G,≤ -4.2
14,G25U A26U U56A G86C,≤ -4.2
15,G25U A28C A29G C95A C149G,≤ -4.2
16,G25U A29C,≤ -4.2
17,G25U A29U G62U C85G A142C,≤ -4.2
18,G25U A29U U55A C95A U104G,≤ -4.2
19,G25U A30G C51A C105U G133C,≤ -4.2
20,G25U A30G C63A G92U C116U,≤ -4.2
21,G25U A30U C32A C51G U53A U55C A73C C79A A91C G94C A97C C105U A119C C149U,≤ -4.2
22,G25U A37C A40C U56G C76U C87G C96A C129G U148C C149U,≤ -4.2
23,G25U A37C A41C C116A,≤ -4.2
